The supplement of paper PMC3724861
Some of the results follow.

Tested on: T1, Caupolican (Caup) homeodomain DNA-binding domain
T1 sequence: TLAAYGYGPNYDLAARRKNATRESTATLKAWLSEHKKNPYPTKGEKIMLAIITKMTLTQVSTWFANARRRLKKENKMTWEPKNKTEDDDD
Test: PBM E-score (8-mer, recovered from the published 9-mer minima) (E-score (dimensionless, -0.5 to 0.5)); Drosophila protein; higher = stronger relative binding preference, active = 0.31 or more
Method in brief: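 Caup's homeodomain DNA-binding domain (residues 214-303) was made by in vitro transcription and translation and applied at 100 nM to custom-designed protein binding microarrays. Each value is an enrichment score that gives relative binding preference for a short DNA word, with higher meaning stronger. The 8-mer values were recovered from published 9-mer scores, each of which was the minimum of its two constituent 8-mer scores. A cutoff of 0.31 marks candidate sites.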

Row | Sequence | PBM E-score
1 | ATGCGTTC | inactive: -0.00798
2 | AACTAGCT | ≥ 0.124
3 | CAGGATGA | inactive: -0.0168
4 | AACGCTGA | inactive: -0.0784
5 | TGTAAAAA | inactive: 0.293
6 | CGCAGGAA | inactive: -0.134
7 | TACTTAAA | inactive: -0.0138
8 | CAGCGGCG | inactive: -0.118
9 | CCTATCAA | inactive: 0.0398
10 | CTCGATAC | inactive: 0.133
11 | AAGTGTAT | inactive: 0.144
12 | CCTAGAAA | inactive: -0.0952
13 | AGCAAAAG | inactive: -0.0454
14 | ACTTGACT | inactive: 0.102
15 | CGCTCCTA | inactive: -0.0825
16 | ATCGCGTC | inactive: 0.0197
17 | CAATATGC | inactive: 0.0545
18 | AGGTTTTA | inactive: -0.00666
19 | AGTGCACG | inactive: 0.0451
20 | CGATTGCC | inactive: -0.0353
21 | CGCCGCAA | inactive: -0.126

Row | Sequence | PBM E-score
22 | ACCAGTTG | inactive: 0.116
23 | AATCTTTA | inactive: 0.0372
24 | CCCGGTAA | inactive: -0.059
25 | ACTACTAA | inactive: 0.174
26 | AACTCTAT | inactive: -0.0613
27 | AAATTCGT | ≥ 0.126
28 | TCCCTGAA | inactive: -0.0336
29 | CTAGTCTA | inactive: -0.0394
30 | CGCCACGC | inactive: -0.254
31 | CTATAGAG | inactive: -0.0434
32 | CCTTGGTC | inactive: -0.0882
33 | AAAAGCTC | inactive: -0.126
34 | CGTGTAAA | active: 0.377
35 | TAGCAAAA | inactive: 0.105
36 | CTACCATA | inactive: 0.0534
37 | CCTAGACC | inactive: -0.113
38 | GTGACCAC | inactive: -0.0317
39 | AACCAGGA | inactive: 0.0369
40 | CTGTGACC | inactive: -0.113
41 | GCGCCTAC | inactive: -0.0745
42 | CCGCCGTA | inactive: -0.207

Row | Sequence | PBM E-score
43 | CCCCCCAA | inactive: -0.255
44 | GAGGAACA | inactive: 0.155
45 | CCCGTGGA | inactive: -0.104
46 | ATTACTTG | inactive: 0.245
47 | ATGCGCTG | inactive: -0.0119
48 | CACCAAAC | inactive: 0.0517
49 | ACACGCAT | inactive: 0.278
50 | GATCCTTA | inactive: 0.0979
51 | GAACTCTC | inactive: -0.0817
52 | AATACGGT | inactive: 0.00013
53 | GGGTGGGA | inactive: -0.0979
54 | AGAAGGCG | inactive: -0.172
55 | CTGGATCC | inactive: -0.125
56 | ACTCCGAA | inactive: -0.0804
57 | AAAAGGTA | inactive: 0.0466
58 | ACTATTAG | inactive: 0.103
59 | CATGTAAA | active: 0.421
60 | TAGTCATA | inactive: 0.171
61 | AATACCAT | ≥ 0.265
